Data on 19 variants can be found in the RNAGym collection of RNA variant scans (doi:10.1073/pnas.2313332121).

B1: TPR 5TU (parent)
chain: GGAUCUUCUCGAUCUAACAAAAAAGACAAAUCUGCCACAAAGCUUGAGAGCAUCUUCGGAUGCAGAGGCGGCAGCCUUCGGUGGCGCGAUAGCGCCAACGUUCUCAACUAUGACACGCAAAACGCGUGCUCCGUUGAAUGGAGUUUAUCAUG

Variants at the floor of the assay are shown more often than the library holds them.

In this data set the parent is B1. As to the kind of experiment: polymerase ribozyme fitness, log enrichment relative to wild type (log ratio); higher = more active; in vitro selection for triplet polymerase activity. In outline: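 Libraries of mutants in each subunit of a heterodimeric triplet polymerase ribozyme were generated by PCR and transcribed. In triplicate, each went through one in vitro selection round: annealing with biotinylated primer, partner subunit and triplets; frozen incubation at −7 °C; gel excision of extended constructs; streptavidin-bead capture; RT-PCR. Fitness, taken from Illumina sequencing of input and output libraries, is the logarithm of a genotype's enrichment over wild-type enrichment, averaged across replicates with inverse-variance weights. The logarithm is base 2, and genotypes needed ≥10 input reads and ≥1 read per output to be kept.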
For the variant GGAUCUUCUCGAUCUAACAAAAAAGACAAAACUGCCACAAAGCUUGAGAGCUUCUUCGGAUGCAGAGGCGGCAGCCUUCGGUAGCGCGAUAGCGCCAACGUUCUCAACUAUGACACGCAAAAAGCGAGCUCCGUUGAAUGGAGUUUAUCAUG [U31A A52U G83A C123A U127A], the “polymerase ribozyme fitness (log ratio)” value was not above -4.2.
To GGAUCUUCUCGAUCUAACAAAAAAGACAAUUCUGCCACAAAGCUGGAGAGCAUCUUCGGAUGCAGAGGCGGCAGCCUUCGGUGGCGCGAUAGUGCCAACGUUGUCAACUAUGACACGGAAAACGCGUGCUCCGUUGAAUGGAGUUUAUCAUG [A30U U45G C93U C103G C118G] belongs not above -4.2; to GGAUCUUCUCGAUCUAACAAAAAAGACAAUUCUGCCACAAAGCUUGAGAGCAUCGUCGGAUGCAGAGGCGGCAGCCUUCAGUGGUGCGAUCGCGCCAACGUUCUCAACUAUGACACGCAAAACGAGUGCUCCGUUGAAUGGAGUUUAUCAUG [A30U U55G G80A C85U A91C C125A], not above -4.2.
Consider GGAUCUUCUCGAUCUAACAAAAAAGACAAAACUGCCACGAAGCUUGAGAGCAUCUUCGGAUGCAGAGGCGGCAGCCUUCGGUGGCGCGAUAGCUCCAACGUUCUCAACUAUGACACGCAAAACGCGUGCUCCGUUGAAUGGAGUUUAUCAUG [U31A A39G G94U], for which the “polymerase ribozyme fitness (log ratio)” value is -2.07.
In the case of GGAUCUUCUCGAUCUAACAAAAAAGACAAUUCUGCCACAAAGCUUGAGAGCAUCAUCGGAUGCAGAGGCGGCAGCCUUCGGUGGCGCGAUAGAGCCAACGCUCUCAACUAUGAUACGCAAAACGCGUGCUCCGUUGAGUGGAGUUUAUCAUG [A30U U55A C93A U101C C114U A138G] it was not above -4.2.
For the variant GGAUCUUCUCGAUCUAACAAAAAAGACAAUUCUGCCACAAAGCGUGAGAGCAUCUUCGGAUGCAGAGGCGGCAGCCUUCGGUGGCGCGAUAGCGCCAACGUUCUCAACUAUGACACGCAAAACGCGUGCUCCAUUGAAUGGAGUUUAUCAUG [A30U U44G G133A], the “polymerase ribozyme fitness (log ratio)” value is not above -4.2.
Consider GGAUCUUCUCGAUCUAACAAAAAAGACAAUUCUGCCACAAAGCUAGAGAGCAUCUUCGGAUGCAGAGGCGGCAGCCUUCGGUGGCGCGAUAGCGCCAACGUUCUCAACUAUGACACGCAAAACGCGUGCUCCGGUGAAUGGAGUGUAUCAUG [A30U U45A U134G U145G], for which the “polymerase ribozyme fitness (log ratio)” value was not above -4.2.
In the case of GGAUCUUCUCGAUCUAACAAAAAAGACAAUUCUGCCACAAAGCUUGAGAGCAUCUGCGGAUGCAGAGGCGGCAGCCUUCGGCGUCGCGAUAGCGUCAACGUUCUCAACUAUGACACGCAAAACGCGUGCUCCGUUGAAUGGAGUUUAUCAUG [A30U U56G U82C G84U C95U] it was not above -4.2.
As for GGAUCUUCUCGAUCUAACAAAAAAGACAAUUCUGCCACAAAGCUUGAGAGCAUCUUCGGAUGCAGAGGCGGCAGCCUUCGGUGGCGCGAGUGCGCCAACGUUCUCAACUAGGACACGCAAAACGCGUGCUCCGUUGAAUGGAGUUUAUCAUG [A30U U90G A91U U111G], the “polymerase ribozyme fitness (log ratio)” value is not above -4.2.
To GGAUCUUCUCGAUCUAACAAAAAAGACAAUUCUGCCACAAAGCUUGAGAGCAUCUUCGGAUGCAGAGGCGGCAGCCAUCGGUGGUGCGAUAGCGCCAACGUUCUCAACUAUGACACGCAAAACGCGUGCUCCUUUGAAUGGAGUUUAUCAUG [A30U U77A C85U G133U] belongs not above -4.2; to GGAUCUUCUCGAUCUAACAAAAAAGACAAUUCUGCCACAAAGCUUGAGAGCAUCAUCGGAUGCAGAGGCGGCAACCUUUGGUGGCGAGAUAGCGCCAACGUUCUCAACUAUGACAAGCAAAACGCGUGCUCCGUUGAAUGGAGUUUAUCAUG [A30U U55A G74A C79U C87A C116A], not above -4.2.
To GGAUCUUCUCGAUCUAACAAAAAAGACAAUUCUGCCACAAAGCUUGAGAGCAUCUGCCGAUGCAGAGGCGGCAGACUUCGGUGUCGCGAUAGCGCCAACGUUCUCAACUAUGACAAGCAAAACGCGUGCUCCGUUGAAUGGAGUUUAUCAUG [A30U U56G G58C C75A G84U C116A] belongs not above -4.2; to GGAUCUUCUCGAUCUAACAAAAAAGACAAUUCUGCCACAAAGCUUGAGAGCAUCUUCGGAUGCAGAGGCGGCAGCCUUCGGUGGCGCGAUAGCGCCAACGUUCUCAACUAUAACAUGCAAAUCGCGUGCUCCGUUGAAUGGAGUUUAUCAUG [A30U G112A C116U A122U], not above -4.2.
In the case of GGAUCUUCUCGAUCUAACAAAAAAGACAAAACUGCCACGUCGCUUGAAAGCAUCUUCGGAUGCAGAGGCGGCAGCCUUCGGUGGCGCGAUAGCGUCAACGUUCUCAACUAUGACACGCAAAACGCGUGCUGCGUUGAAUGGAGUUUAACAUG [U31A A39G A40U A41C G48A C95U C131G U148A], the “polymerase ribozyme fitness (log ratio)” value was not above -4.2.
Consider GGAUCUUCUCGAUCUAACAAAAAAGACAAAACUGCCACAAAGCUUGAGAGCAUCUUCGGAUGCAGAGGCGGCAGCCUUCGGUGGCGCGCUAGCGCCAACGUUCUCAACUAUGACACGCAAAACGCGUGCUCCGUUGAAUGGAGUUUAUCAUG [U31A A89C], for which the “polymerase ribozyme fitness (log ratio)” value is -0.512.
To GGAUCUUCUCGAUCUAACAAAAAAGACAAAACUGCCACAGAGCGUGAGAGCAUCUUCGGAUGCAGAGGCGGCAGCCUUCGGUGGCGCGAUAGCGCCAACGUUCUCAACUAUGACACGCAAAACGCGUGCUCCGUUGAAUGCAGUUUAUCAUG [U31A A40G U44G G141C] belongs -4.06.
For GGAUCUUCUCGAUCUAACAAAAAAGACAAAACUGCCACAAAGCUUGAGAGCAUCUUCGGAUGCAGCCGCGGCAGCCUUCGGUGGCGCAAUAGCGCCAACGUUCUCAACUAUGACACGCAAAACGCGUGCUCCGUUGAAUGAAGUUGAUCAUG [U31A A66C G67C G88A G141A U146G], the “polymerase ribozyme fitness (log ratio)” value was not above -4.2.
GGAUCUUCUCGAUCUAACAAAAAAGACAAUUCAGCCACAAAGCUUGAGAGCAUCUUCGGAUGCGGUGGCGGCAGCCUUCGGUCGCGCGAUAGCGCCAACGUUCUCAACUAUGACACUCAAAACGCGUGCUCCGUUGAAUGGAGUUUAUCAUG [A30U U33A A64G A66U G83C G117U]: the “polymerase ribozyme fitness (log ratio)” value was not above -4.2.
As to GGAUCUUCUCGAUCUAACAAAAAAGACAAUUCUGCCACAAAGCUUGAGAGCAUCUUCGGAUGCAGAGGCGGCAGCCUUCGGUGGCGCGAUAGCGCCAACGUUCUCAACUAUGACACGCAAAACGCGUGCUCCGCUGAAUGGAGUUUAUCAUG [A30U U134C], the “polymerase ribozyme fitness (log ratio)” value is -3.45.
